Results on six molecules are retold here after paper PMC12136788.

The labels stand for the following.
T1: UNK ZnF1-6 (called full-length) (human, UniProt Q9C0B0 30-357)
T1 sequence: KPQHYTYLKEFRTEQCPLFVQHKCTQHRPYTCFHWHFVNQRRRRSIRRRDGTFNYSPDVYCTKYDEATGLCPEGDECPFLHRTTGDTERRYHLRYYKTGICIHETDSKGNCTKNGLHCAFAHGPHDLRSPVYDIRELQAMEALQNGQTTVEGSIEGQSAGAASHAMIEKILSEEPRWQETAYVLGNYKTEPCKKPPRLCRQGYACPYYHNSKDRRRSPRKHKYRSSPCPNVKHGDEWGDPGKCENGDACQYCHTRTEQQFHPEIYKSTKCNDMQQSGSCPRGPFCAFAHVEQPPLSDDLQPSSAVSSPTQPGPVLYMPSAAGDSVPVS

B1: chr17:35577220:35577322:-|CDS|ENSG00000108733|unk|FALSE|unique (ssRNA)
RNA: GGGAGUUCUACAGUCCGACGAUCUCUAUUAUGUUCCUGGUUCUUCUUCCCUAUCUGAAAGUGAAGCUGGAGAAGCUGGUUUCUAGCCUGAGAGAAGAGGAUGAAUAUUCUAUUCAUCCCCCUUCUUCCCGCUGGAAACGAUUUCAACAGAGGAUUGAGCAUCA
B2: chr3:48621462:48621756:-|CDS|ENSG00000183396|control|control|control (ssRNA)
RNA: GGGAGUUCUACAGUCCGACGAUCUACCAGGUGGGGCUGGACUUGCAGCCCUGGGGGUGUCAGCCAAAGAGUGUGGAGGGCUGUAGGGGUGGCCUGAGCUGUCCUGGCUACUGGCUGGGCCCUGGAGCAAGCCGCAUCUACCCCCAACAGAGGAUUGAGCAUCA
B3: chr12:21491601:21491717:-|CDS|ENSG00000004700|unk|FALSE|unique (ssRNA)
RNA: GGGAGUUCUACAGUCCGACGAUCGCUGCCUCCCAUAGCUCUAACUGAGGAACUGGAUUCUAUAACCAGUGAGCUACAUGCAGUAGAAAUUCAAAUUCAAGAACUUACGGAAAGGCAACAAGAGCUUAUUCAGAAAAAAAAAGUCAACAGAGGAUUGAGCAUCA
B4: chr9:19276226:19276327:+|CDS|ENSG00000137145|unk|FALSE|unique (ssRNA)
RNA: GGGAGUUCUACAGUCCGACGAUCCUUUGUCGUAGCUGGUCUCACUGACACAUCUACUCUUUUGGAUCAAGAAAUAAAUCGUUUAGAUACUAAGUCAACUGGACCUAAAGCUCCAAUUACAGACAUUGCCAUUAUUAUCAAAUCCAACAGAGGAUUGAGCAUCA
B5: chr21:14485227:14485911:-|three_prime_utr|ENSG00000155307|control|control|control (ssRNA)
RNA: GGGAGUUCUACAGUCCGACGAUCCCCAACUAUAUAUCUACAGAUGCAUUCCAUUUUAACUCUUCUUGAGCUAAAACGUCAAAUAGGAGAGGAAGAUAAGAUAAAUAUUUGUAAAUAAAACCUAAAGUUUAAAUGUUUUAAUCUCAACAGAGGAUUGAGCAUCA
B6: chr5:36035020:36035974:-|three_prime_utr|ENSG00000168671|control|control|control (ssRNA)
RNA: GGGAGUUCUACAGUCCGACGAUCAGACAUAAGGCCAGGUGCAGCCUUGGCGGGGUCUGUUUGGUGGGCGAUGUCACCAUUUCUAGGGAGCUUCCCACUAGUUCUGGCAGCCCCAUUCUCUAGUCCUUCUAGUUAUCUCCUGUUCAACAGAGGAUUGAGCAUCA

Some of the results follow.

This assay concerns the target T1, UNK ZnF1-6 (called full-length). Description: nsRBNS (natural sequence RNA bind-n-seq); RBNS binding buffer (assumed for nsRBNS): 25 mM Tris pH 7.5, 150 mM KCl, 3 mM MgCl2, 0.01% Triton X-100, 500 ug/ml BSA, 20 U/ml SUPERase-In, 4 C; UNK is unkempt and MSI1 is Musashi-1; names of the RNAs are library labels; protein concentration not given here; high values mean tight binding.
For B1, the binding signal was found to be 0.351 enrichment R.

Turning to B2, the binding signal amounted to 0.88 enrichment R.

B3 returned a binding signal of 0.594 enrichment R.

In the case of B4, the binding signal amounted to 0.56 enrichment R.

In the case of B5, the binding signal was 0.616 enrichment R.

In turn, B6 displayed a binding signal of 1.32 enrichment R.
